About 9,100 (2.8%) of roughly 320,000 compounds were called active. Inconclusive results, whose numbers are uncertain, are shown with a selection of clear calls. Calls come from the whole dose curve; as a rule, active = well fitted activation curve with a large enough effect; inconclusive = small, poorly fitted or top-dose-only effect; inactive = no such curve, though single readings can be large or run the other way. Where the call is inconclusive, the potency comes from a doubtful curve fit.
assay: qHTS Assay for Rab9 Promoter Activators; settings: Huh7 Rab9 promoter-luciferase reporter, luminescence, 24 h; series mostly up to 9.22 µM; activation, negative = inhibition: at the top concentration; note: nearly all actives have a fitted effect of over 60% in size; for activation, negative = inhibition: % of control where 0% means no effect
In short: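 Promoter activation is measured as luciferase luminescence in Huh7 cells stably transfected with a Rab9 promoter–luciferase construct, following 24 h compound exposure at 37 °C and 10 min reagent incubation at ambient temperature.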
Potency is the fitted concentration of half-maximal effect; tags give direction and shape of the fitted curve.

Potency, active:
COc1ccc(C2=NCN(c3ccc(C)cc3)C(=S)N2)cc1 2.82 µM, O=c1c(-c2nc3ccccc3s2)cccn1Cc1ccccc1 2.24 µM, CCCCCNc1nc(-c2ccccc2)cs1 2.82 µM, CC(=O)Nc1ccc(N=Nc2ccccc2)cc1 2.82 µM, CCOC(=O)c1c(-c2ccccc2)cn2c(C)cc(C)nc12 2.82 µM, CC(C)Oc1ccc(C(=O)NC2=NCCS2)cc1 0.447 µM, CC(C)c1ccc(CNc2ccc3c(c2)ncn3C)cc1 3.55 µM, Cc1cccc(C(=O)O/N=C(\N)c2ccc(Br)cc2)c1 0.708 µM, COc1cccc(-c2nc(CS(=O)(=O)c3ccccc3)no2)c1 3.16 µM, Cc1cc(=O)n2[nH]c(-c3ccc(Cl)cc3)cc2n1 3.55 µM, O=C(Nc1nc(-c2ccc3c(c2)OCCO3)cs1)C1CCCC1 2.24 µM, CCCCOc1ccc(-c2nnc(-c3ccncc3)o2)cc1 3.98 µM, Cc1ccc(C(=O)Nc2ccc3c(c2)OCCO3)c(C)c1 0.0891 µM, Cc1ccc(-c2cc(C(=O)N3CCCc4ccccc43)no2)cc1 3.16 µM, Cc1ccnc(NC(=O)Nc2cccc(F)c2)n1 1.12 µM, CCCNC(=O)C1CC(=O)N(c2ccc(OCc3ccc(F)cc3)cc2)C1 (centres undefined) 0.891 µM, Cc1ccc2[nH]c(-c3cccc(N)c3)cc2c1 2.24 µM, Cc1cccc(NC(=O)c2ccc3c(c2)OCCO3)c1 0.631 µM, CCN(CC)S(=O)(=O)c1cccc(C(=O)N/N=C(\C)c2cccs2)c1 3.16 µM

Potency, inconclusive:
NC(=O)N/N=C/c1cn(-c2ccccc2)nc1-c1cccs1 2.82 µM [activator, partial curve], Cc1cccc(/C=N/NC(=O)c2ccc(Br)cc2)c1 3.16 µM [activator, single point], Cc1oc(-c2ccc(-c3ccccc3)cc2)nc1CN(CCO)C(C)C 0.0891 µM [activator, full curve], CS(=O)(=O)N1N=C(c2ccc(Br)cc2)CC1c1cccs1 (centres undefined) 2.51 µM [activator, partial curve], NC(=O)c1ccsc1NC(=O)c1ccc(S(=O)(=O)N2CCCC2)cc1 3.98 µM [activator, single point], O=C(c1cc(-c2ccccc2Cl)on1)N1CCCC1 0.501 µM [activator, partial curve, poor fit], Nc1nc(-c2ccccn2)nc(N)c1Cc1ccccc1F 5.62 µM [activator, single point], Cc1cccnc1NC(=O)c1ccc2c(c1)OCCO2 5.62 µM [activator, single point], COc1ccc(NC(=O)/C(C#N)=C\c2ccc(N3CCOCC3)o2)cc1 3.55 µM [activator, partial curve], N/C(=N\OC(=O)c1ccc(F)cc1)c1ccc(Br)cc1 5.01 µM [activator, single point], O=C(COc1ccc(Cl)cc1Cl)Nc1ccc(-c2ccc(N3CCOCC3)nn2)cc1 1.41 µM [activator, partial curve], Clc1ccc2nc(COc3ccccc3)[nH]c2c1 2.24 µM [activator, partial curve], CCOC(=O)c1ccc(Nc2ncnc3ccccc23)cc1 4.47 µM [activator, partial curve], Cc1ncsc1C(=O)Nc1nc2c(s1)CC(C)CC2 (centres undefined) 5.01 µM [activator, single point], COc1ccc(-c2cc(C(=O)Nc3cccnc3)no2)cc1OC 2.82 µM [activator, partial curve], O=C(CN1C(=O)c2ccccc2S1(=O)=O)Nc1ccccc1 3.16 µM [activator, single point], CNc1cc(NS(=O)(=O)c2ccc(N)cc2)nc(NC)n1 6.51 µM [activator, single point], COc1ccc(NC(=O)N2CCc3ccccc3C2)cc1 3.55 µM [activator, partial curve], Nc1ccc(Nc2nc(-c3ccncc3)cs2)cc1 3.55 µM [activator, single point], Cc1ccc(C(=O)CC(=O)c2ccc(C(C)(C)C)cc2)cc1 1.41 µM [activator, partial curve], Cc1nc(NC(=O)c2ccc(OCC(C)C)cc2)sc1Cc1ccc2c(c1)OCO2 3.16 µM [activator, partial curve], Nc1c(C(=O)c2ccccc2)sc2nsc(SCCN3CCOCC3)c12 6.31 µM [activator, single point], O=C(CC1CCCCC1)NCc1ccc(F)cc1 3.16 µM [activator, partial curve], COc1ccc(NC(=O)CN(C)C(=O)c2ccc(=O)[nH]c2)cc1 1.26 µM [activator, single point], O=C1CN(S(=O)(=O)c2ccc(Cl)cc2C(F)(F)F)CCN1 1.26 µM [activator, single point], Cc1csc(NC(=O)c2cc3c(s2)CCCC3)n1 0.447 µM [activator, partial curve, poor fit], O=C(NCc1cccs1)c1noc2c1CCCCC2 3.16 µM [activator, partial curve], O=C(NC(=S)Nc1ccccn1)c1cncc(Br)c1 1.78 µM [activator, partial curve], O=C(c1ccccc1)c1cccc(NC(=O)c2ccc(Br)o2)c1 2.82 µM [activator, single point], Cc1nc(C(F)(F)F)ccc1C(=O)NCC(O)c1ccccc1 (centres undefined) 5.62 µM [activator, single point], COc1ccc(-c2nc(-c3ccc(O)cc3O)cs2)cc1OC 5.62 µM [activator, single point], Cc1c(NC(=S)NC(=O)c2sc3ccccc3c2Cl)cccc1C(=O)O 0.0891 µM [activator, full curve, poor fit], Nc1c(C(=O)Nc2nc3ccccc3s2)sc2nc(-c3cccs3)ccc12 1.26 µM [activator, single point], CN(C)c1ccc(/C=N/NC(=O)c2ccc(Cn3cc(Br)cn3)o2)cc1 6.31 µM [activator, single point], C/C(=N\NC(=O)c1ccc(O)cc1O)c1cccnc1 5.62 µM [activator, single point], COc1ccc2c(c1)CC/C(=C/c1ccccn1)C2=O 5.01 µM [activator, partial curve, poor fit], Cc1ccccc1NC(=O)CSc1nc2ccccc2o1 3.55 µM [activator, single point], Cc1cc2nc(/C=C/c3cccnc3)[nH]c2cc1C 1.78 µM [activator, partial curve], CC(=O)Nc1ccc(N=C(C2=C(O)c3ccccc3C2=O)c2ccccc2)cc1 4.47 µM [activator, single point], CCOc1ccc(-c2nc(CS(=O)(=O)CC(=O)NCc3ccc(F)cc3)c(C)o2)cc1 0.708 µM [activator, full curve, poor fit]

activation, negative = inhibition, inactive:
Cc1nn(CC(=O)NCC(C)c2ccccc2)c(=O)c2cc(-c3ccccc3)nn12 (centres undefined) 1.98%, COc1ccc(CN(C)CC2CCCN(CCc3ccccc3C)C2)cc1O (centres undefined) -6.85%, Cn1cccc1C(=O)NC(=O)COC(=O)CC12CC3CC(CC(C3)C1)C2 -3.84%, CC(/C=C/c1ccco1)=N\NC(=O)c1cc(C)[nH]n1 -3.91%, COc1cccc(NC(=O)Nc2nc(SC(C)(C)C)ns2)c1 8.22%, CSc1ccccc1C(=O)Nc1ccccc1C(=O)NC(C)C -5.23%, CCc1ccccc1NC(=S)N(CCOC)C(C)c1ccco1 (centres undefined) -0.98%, Cc1csc(SCC(=O)NC2CCC(C)CC2)n1 (centres undefined) -2.94%, COc1ccc(CN(C)C(=O)Cn2ccc(N)nc2=O)cc1OC -3.28%, O=C(NC(=S)N1CCN(Cc2ccc3c(c2)OCO3)CC1)c1ccc(Cl)cc1 -3.75%, Cc1ccc(-c2noc(CSc3nnc(-c4ccncc4)n3-c3ccc(C)cc3)n2)cc1 -6.4%, CC(=O)OCC1(C)CN(c2ccccc2)N(C(=O)c2ccc(F)cc2)C1=O (centres undefined) 0.848%, COc1ccc(C(=O)Nc2ccc([N+](=O)[O-])cn2)cc1OC 21.5%, C#CCOCCOCCOCCNc1nc(N2CCN(C(=O)[C@H](CCCCN)n3cc(CC(C)O)nn3)CC2)nc(N2CCN(C(=O)[C@H](CCCCN)n3cc(CC(C)O)nn3)CC2)n1 (some centres undefined) 1.5%, CN(c1ccc(Cl)cc1)S(=O)(=O)c1nnc(NC(=O)C(C)(C)C)s1 -12.1%, CCOC1=NN(c2ncc(C(F)(F)F)cc2Cl)C(=O)C1 -7.28%, CCOc1ccc(NC(=O)CN(C)C(=O)CCCn2c(=O)oc3ccccc32)cc1OCC 2.53%, COC(=O)c1ccccc1OCCCOc1ccc(C)cc1OC -16.3%, Cc1ccc(NC(=O)C2CC2c2ccccc2)c([N+](=O)[O-])c1 (centres undefined) 22.2%, CCOC(=O)c1ccc(N2C(=O)CC(SCC(=O)Nc3ccc(S(N)(=O)=O)cc3)C2=O)cc1 (centres undefined) -38.6%

— PubChem BioAssay AID485297 (National Center for Advancing Translational Sciences (NCATS), 2010)
